Data published in PubChem BioAssay AID445 (National Center for Advancing Translational Sciences (NCATS), 2006).
The campaign covered roughly 110,000 compounds. About 40 (0.04%) were called active. This list was built around the results that the source calls inconclusive (neither active nor inactive); the mix of calls is not that of the screen. Calls follow the shape of the dose curve; as a rule, active = well fitted curve in the direction sought with a large enough effect in the signal ratio (not every such curve was filed as active); inconclusive = small, poorly fitted or top-dose-only effect, or a change in a side signal; inactive = flat fitted curve, though single readings scatter; the % refers to the signal ratio. Potencies of inconclusive entries are doubtful fits and often do not repeat.

Test: IkB Signaling;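 as to IkBa stabilization activation: 0% = basal untreated cells and 100% = reference inhibitor full response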
Settings: ABC-DLBCL IkBa-CBG/CBR dual luciferase ratio (green luciferase fused to IkBa over red control in OCI-Ly3 lymphoma cells), 4 h; IkBa stabilization activation: at 57.1 µM (top of the series), scaled: untreated 0%, proteasome inhibitor 100% unless noted
How it was run: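 In this assay, an IκBα–CBG68 fusion accumulates when IKK-driven degradation is blocked; native CBR normalizes for cell number. OCI-Ly3 cells were treated 4 h with compound and doxycycline, then green and red light read after Chroma-Glo addition.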
Potency is read from the fitted curve at half-maximal effect.

Row | Compound | IkBa stabilization activation | Potency
1 | Cc1cc(C)c2c(=O)[nH]c(SCC(=O)N3CCCCC3)nc2n1 | inactive: 2.14% | –
2 | CCc1ccc(C(=O)c2cn(CC(=O)Nc3ccc4c(c3)OCO4)c3ccc(Cl)cc3c2=O)cc1 | inactive: 1.11% | –
3 | CC1=NN(C(=O)c2ccncc2)C(=O)[C@@H]1N=Nc1ccc2ccccc2c1 | inactive: 17.9% [at 11.4 µM, scaled: untreated 0%, proteasome inhibitor 100%] | –
4 | CCNc1ncc2nc(C)c(=O)n(Cc3cccc(OC)c3)c2n1 | inactive: 1.42% [at 11.4 µM, scaled: untreated 0%, proteasome inhibitor 100%] | –
5 | Cc1ccc(S(=O)(=O)NCCc2nnc3ccc(SCC(=O)Nc4c(C)cc(C)cc4C)nn23)cc1 | inconclusive: -0.804% [signal inhibitor] | –
6 | COc1cccc(-c2cc(NCc3cccnc3)ncn2)c1 | inactive: -1.57% [at 11.4 µM, scaled: untreated 0%, proteasome inhibitor 100%] | –
7 | CCOc1ccc(CCNC(=O)c2c3c(nc4ccccc24)C(=O)N(C2CCCCC2)C3)cc1 | inconclusive: 3.67% [signal inhibitor] | –
8 | Nc1ccc(N)c(Cl)c1 | inactive: 10.5% | –
9 | Cc1cccc2cc3ccc4ccccc4c3cc12 | inactive: -0.519% [at 11.4 µM, scaled: untreated 0%, proteasome inhibitor 100%] | –
10 | Cc1ccc(C)c(NC(=O)c2oc(=O)c3ccccc3c2-c2ccccc2)c1 | inconclusive: 2.64% [signal inhibitor] | –
11 | CCCc1nn2c(=O)cc(COC(=O)c3ccc4c(c3)OCO4)nc2s1 | inconclusive: -2.43% [signal inhibitor] | –
12 | Cc1ccc(-c2c(C(=O)Nc3ccccc3F)oc(=O)c3ccccc23)cc1 | inconclusive: 4.76% [signal inhibitor] | –
13 | O=C(NCc1ccco1)c1ccc2nc3sc4c(c3c(=O)n2c1)CCCC4 | inactive: 20% | –
14 | Cc1ccc(C)c(N2CCN(C(=O)Cn3cnc4nc5c(cc4c3=O)CCCC5)CC2)c1 | inconclusive: 6.18% [signal inhibitor] | –
15 | CCOC(=O)c1cccc(NC(=O)C2=C(C)C(=O)OC23CCCCC3)c1 | inconclusive: 1.27% [signal inhibitor] | –
16 | Cc1ccc(C)c(Cn2c(SCC(=O)NCc3ccccc3)nc3ccccc32)c1 | inconclusive: 1.57% [signal inhibitor] | –
17 | COc1ccc(CNc2ncnc3c2c(-c2ccccc2)cn3-c2ccc(C)c(Cl)c2)cc1 | inconclusive: -3.04% [signal inhibitor] | –
18 | COc1cccc(C(=O)Nc2nc(-c3nnn(-c4cccc(Cl)c4C)c3C)ns2)c1 | inconclusive: 4.56% [signal inhibitor] | –
19 | O=c1[nH]c(=O)n(C2CCCCCC2)c(O)c1C=NCc1ccc(F)cc1 | inconclusive: 4.47% [signal inhibitor] | –
20 | COc1ccc2c(CNCc3ccco3)c(C(=O)O)n(Cc3cccc(F)c3)c2c1 | inconclusive: 0.198% [signal inhibitor] | –
21 | c1ccc(Nc2c3c(nc4ncnn24)CCC3)cc1 | inactive: -1.96% | –

Row | Compound | IkBa stabilization activation | Potency
22 | CCCN(CCC)C(=O)C1CCN(c2cc(C)nc3c(-c4ccc(Cl)cc4)c(C)nn23)CC1 | inconclusive: -0.983% [signal inhibitor] | –
23 | O=C(NCCO)c1ccc(-c2nnc(Nc3ccc(OC(F)(F)Cl)cc3)c3ccccc23)cc1 | inconclusive: -2.65% [signal inhibitor] | –
24 | Cc1ccnc(NC(=O)CCC2CCCCC2)c1 | inconclusive: 6.13% [signal inhibitor] | –
25 | O=C(Nc1ccc2oc(-c3ccc(Br)cc3)nc2c1)c1cc2ccccc2o1 | inactive: 2.35% | –
26 | COc1cccc(CNCc2c(C(=O)O)n(Cc3ccc(C)cc3)c3cc(C)ccc23)c1OC | inconclusive: -1.05% [signal inhibitor] | –
27 | CCC1CCCCN1CCCNC(=O)c1ccc2c(c1)N(Cc1cccc(Cl)c1)C(=O)c1ccccc1S2(=O)=O (configuration not stated) | inconclusive: 4.09% [signal inhibitor] | –
28 | S=C(c1ccc(-c2cccc(Cl)c2)o1)N1CCOCC1 | inactive: 1.24% | –
29 | CC(=O)c1ccc(NC(=O)c2sc(-n3nc(C)c(Cc4ccc5c(c4)OCO5)c3C)nc2C)cc1 | inactive: -0.813% | –
30 | C[C@@]12CCC(=O)C=C1CC[C@H]1[C@H]3CC[C@](O)(C(=O)CO)[C@]3(C)CC(=O)[C@@H]12 | inconclusive: 7.89% [signal activator] | –
31 | O=C(NCCc1nc2ccccc2n1Cc1ccc(Cl)cc1)c1ccccc1 | inconclusive: 4.05% [signal inhibitor] | –
32 | Cc1nnc(NC(=O)CSc2nc3c([nH]c4ccccc43)c(=O)n2-c2cccc(Cl)c2)s1 | inconclusive: -0.55% [signal inhibitor] | –
33 | COc1ccc(-c2nc3ccccc3o2)cc1NC(=O)c1cc(Br)ccc1OC | inconclusive: 5.39% [signal inhibitor] | –
34 | COc1ccc(CCNC(=O)c2cnc3sc(N4CCCCCC4)nn3c2=O)cc1 | inconclusive: 5.09% [signal inhibitor] | –
35 | c1ccc(-c2noc(CSc3nnc(Cc4cccs4)n3-c3ccccc3)n2)cc1 | inconclusive: -4.4% [signal inhibitor] | –
36 | O=C(COc1ccccc1)Nc1nc(-c2cccs2)cs1 | inconclusive: 2.72% [signal inhibitor] | –
37 | CC(=O)Nc1nc2ccccc2n1CCOc1ccccc1Cl | – | inconclusive: 31.6 µM [rising, partial curve]
38 | COc1ccc(N2CCN(C(=O)C3CCCN(S(=O)(=O)c4ccc5c(c4)oc(=O)n5C)C3)CC2)cc1 (configuration not stated) | inconclusive: 2.06% [signal inhibitor] | –
39 | CCN1CCc2nc(NC(=O)c3ccc4c(c3)OCCO4)sc2C1 | inactive: 0.576% | –
40 | COc1ccc(NC(=O)Cn2c(=O)oc3cc(S(=O)(=O)N4CCCC4)ccc32)cc1OC | inconclusive: 2.04% [signal inhibitor] | –
41 | Cc1cccc(NC(=O)CN2C(=O)C(c3ccc(F)cc3)=NC23CCCCCC3)c1C | inconclusive: 1.89% [signal inhibitor] | –
42 | Cc1c(C(=O)NCCC2=CCCCC2)oc2ccc(S(=O)(=O)N3CCOCC3)cc12 | inconclusive: 4.49% [signal inhibitor] | –
